# Some of the results follow.
# B1: GH95CBM (Clostridium perfringens) (protein)
# chain: EKVAVETSVYLSELEWKSASTGYGEIQKDASCDGNTITLKGENGEKVSYDKGIGTHAHSEIVYSLEGLDYYDYFETFVGVDQEMAGTVASISFEVYLDNEKVFDSGLMTGDTTQKHVKVPIAGKNTLKLVVKDGGDSIGSDHGSFGDAKLT
# Experiments:
# Assay in all cases: glycan array binding signal (z-score within array); higher = stronger binding
# Settings in all cases: glycan notation: IUPAC condensed, linker removed
# Fuc(a1-2)Gal = target: Fuc(a1-2)Gal
# Summary of the method: (§1)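 Arrays were curated from the Consortium for Functional Glycomics database, 3228 in total, and kept only where the protein sequence was available. Binding is expressed as a within-array Z-score. This score was averaged across arrays of the same protein sequence at different concentrations or buffers and across linkers, and negative values can be read as non-binding.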
# Fuc(a1-2)Gal(b1-3)GalNAc = target: Fuc(a1-2)Gal(b1-3)GalNAc
# Summary of the method: as §1
# [1] = target: Fuc(a1-2)Gal(b1-3)GalNAc(b1-3)Gal
# Summary of the method: as §1
# [2] = target: Fuc(a1-2)Gal(b1-3)GalNAc(b1-3)Gal(a1-4)Gal(b1-4)Glc
# Summary of the method: as §1
# [3] = target: Fuc(a1-2)Gal(b1-3)GalNAc(b1-4)[Neu5Ac(a2-3)]Gal(b1-4)Glc
# Summary of the method: as §1
# Fuc(a1-2)Gal(b1-3)GlcNAc = target: Fuc(a1-2)Gal(b1-3)GlcNAc
# Summary of the method: as §1
# [4] = target: Fuc(a1-2)Gal(b1-3)GlcNAc(b1-3)Gal(b1-4)Glc
# Summary of the method: as §1
# [5] = target: Fuc(a1-2)Gal(b1-3)[Fuc(a1-4)]GlcNAc
# Summary of the method: as §1
# Fuc(a1-2)Gal(b1-4)Glc = target: Fuc(a1-2)Gal(b1-4)Glc
# Summary of the method: as §1
# Fuc(a1-2)Gal(b1-4)Glc6S = target: Fuc(a1-2)Gal(b1-4)Glc6S
# Summary of the method: as §1
# Fuc(a1-2)Gal(b1-4)GlcNAc = target: Fuc(a1-2)Gal(b1-4)GlcNAc
# Summary of the method: as §1
# [6] = target: Fuc(a1-2)Gal(b1-4)GlcNAc(b1-3)Gal(b1-4)GlcNAc
# Summary of the method: as §1
# [7] = target: Fuc(a1-2)Gal(b1-4)GlcNAc(b1-3)Gal(b1-4)GlcNAc(b1-3)Gal(b1-4)GlcNAc
# Summary of the method: as §1
# [8] = target: Fuc(a1-2)Gal(b1-4)GlcNAc6S
# Summary of the method: as §1
# [9] = target: Fuc(a1-2)Gal(b1-4)[Fuc(a1-3)]GlcNAc
# Summary of the method: as §1
# [10] = target: Fuc(a1-2)Gal(b1-4)[Fuc(a1-3)]GlcNAc(b1-3)Gal(b1-4)[Fuc(a1-3)]GlcNAc
# Summary of the method: as §1
# [11] = target: Fuc(a1-2)Gal(b1-4)[Fuc(a1-3)]GlcNAc(b1-3)Gal(b1-4)[Fuc(a1-3)]GlcNAc(b1-3)Gal(b1-4)[Fuc(a1-3)]GlcNAc
# Summary of the method: as §1
# Fuc(a1-2)Gal6S(b1-4)Glc = target: Fuc(a1-2)Gal6S(b1-4)Glc
# Summary of the method: as §1
# [12] = target: Fuc(a1-2)Gal6S(b1-4)Glc6S
# Summary of the method: as §1
# [13] = target: Fuc(a1-2)Gal6S(b1-4)GlcNAc
# Summary of the method: as §1
# Fuc(a1-2)[Gal(a1-3)]Gal = target: Fuc(a1-2)[Gal(a1-3)]Gal
# Summary of the method: as §1
# [14] = target: Fuc(a1-2)[Gal(a1-3)]Gal(b1-3)GlcNAc
# Summary of the method: as §1
# [15] = target: Fuc(a1-2)[Gal(a1-3)]Gal(b1-4)Glc
# Summary of the method: as §1
# [16] = target: Fuc(a1-2)[Gal(a1-3)]Gal(b1-4)GlcNAc
# Summary of the method: as §1
# [17] = target: Fuc(a1-2)[Gal(a1-3)]Gal(b1-4)[Fuc(a1-3)]GlcNAc
# Summary of the method: as §1
# [18] = target: Fuc(a1-2)[Gal(a1-4)]Gal(b1-4)GlcNAc
# Summary of the method: as §1
# [19] = target: Fuc(a1-2)[GalNAc(a1-3)]Gal
# Summary of the method: as §1
# [20] = target: Fuc(a1-2)[GalNAc(a1-3)]Gal(b1-3)GlcNAc
# Summary of the method: as §1
# [21] = target: Fuc(a1-2)[GalNAc(a1-3)]Gal(b1-4)Glc
# Summary of the method: as §1
# [22] = target: Fuc(a1-2)[GalNAc(a1-3)]Gal(b1-4)GlcNAc
# Summary of the method: as §1
binder,measurement,setting,value
B1,glycan array binding signal (z-score),Fuc(a1-2)Gal,-0.335
same,glycan array binding signal (z-score),Fuc(a1-2)Gal(b1-3)GalNAc,0.102
same,glycan array binding signal (z-score),[1],-0.264
same,glycan array binding signal (z-score),[2],0.083
same,glycan array binding signal (z-score),[3],-0.108
same,glycan array binding signal (z-score),Fuc(a1-2)Gal(b1-3)GlcNAc,3.17
same,glycan array binding signal (z-score),[4],-0.338
same,glycan array binding signal (z-score),[5],0.161
same,glycan array binding signal (z-score),Fuc(a1-2)Gal(b1-4)Glc,-0.353
same,glycan array binding signal (z-score),Fuc(a1-2)Gal(b1-4)Glc6S,-0.329
same,glycan array binding signal (z-score),Fuc(a1-2)Gal(b1-4)GlcNAc,-0.313
same,glycan array binding signal (z-score),[6],-0.285
same,glycan array binding signal (z-score),[7],-0.3
same,glycan array binding signal (z-score),[8],-0.334
same,glycan array binding signal (z-score),[9],-0.325
same,glycan array binding signal (z-score),[10],-0.342
same,glycan array binding signal (z-score),[11],-0.311
same,glycan array binding signal (z-score),Fuc(a1-2)Gal6S(b1-4)Glc,-0.323
same,glycan array binding signal (z-score),[12],-0.298
same,glycan array binding signal (z-score),[13],-0.296
same,glycan array binding signal (z-score),Fuc(a1-2)[Gal(a1-3)]Gal,1.22
same,glycan array binding signal (z-score),[14],-0.321
same,glycan array binding signal (z-score),[15],-0.347
same,glycan array binding signal (z-score),[16],-0.303
same,glycan array binding signal (z-score),[17],-0.33
same,glycan array binding signal (z-score),[18],-0.311
same,glycan array binding signal (z-score),[19],-0.291
same,glycan array binding signal (z-score),[20],-0.344
same,glycan array binding signal (z-score),[21],-0.219
same,glycan array binding signal (z-score),[22],-0.284
